Measured values taken from publication PMC3627919.
These are yes or no findings as the source states them, for the method shown. In cells and extracts the contact can be indirect. Some entries that bind do so weakly or less than the wild type.

The chains behind the UniProt entries cited, without tags or fusion partners. Where a name states a change or a piece, a line headed by the entry shows the natural chain unless it says otherwise. Residues count along the entry.
UniProt P42768, residues 220-288: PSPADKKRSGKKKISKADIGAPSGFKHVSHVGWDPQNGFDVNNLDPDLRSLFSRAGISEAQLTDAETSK
UniProt P60953: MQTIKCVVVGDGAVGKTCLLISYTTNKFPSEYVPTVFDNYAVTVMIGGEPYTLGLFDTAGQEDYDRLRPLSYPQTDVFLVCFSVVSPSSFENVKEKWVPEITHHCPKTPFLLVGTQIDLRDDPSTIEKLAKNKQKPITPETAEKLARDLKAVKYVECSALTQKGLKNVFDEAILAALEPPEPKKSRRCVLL

Assays:
Nfluc416-WASP (human) [1] = target: Nfluc416-WASP (human) (UniProt P42768); test: split reporter; bimolecular luminescence complementation (split firefly luciferase) in living HEK 293 cells, 24 h after transient cotransfection of the pair (50 ng/well) with pRL-tk; D-luciferin 150 ug/ml; IVIS CCD camera; ratio FL at 600 nm to RL at 500 nm; wild-type pairs also with co-expressed GEF or GAP catalytic domains
Nfluc416-WASP (human) [2] = target: Nfluc416-WASP (human) (UniProt P42768); test: split reporter; bimolecular luminescence complementation in living NIH 3T3 cells, serum-starved 6 h, then stimulated with insulin (Rac1), lysophosphatidic acid (RhoA) or bradykinin (CDC42); sequence images for 30 min, or 3 min after different concentrations
[3] = target: c-myc-tagged Nfluc416-WASP (human) (UniProt P42768); test: co-IP; lysate of transfected HEK 293 cells (20 mM Tris pH 7.5, 150 mM NaCl, 1% Triton X-100); precipitated with mouse anti-myc antibody and protein G magnetic beads; Nfluc-effectors detected with anti-myc, Cfluc-Rho GTPases with anti-luciferase polyclonal antibody

For “Cfluc398-CDC42(F37A) (from UniProt P60953 1-191)”, the binding (Nfluc416-WASP (human) [1]) was “no binding”.
For “Cfluc398-CDC42(T17N) (from UniProt P60953 1-191)”, the binding (Nfluc416-WASP (human) [1]) was “binds weakly”.
In the case of “Cfluc398-CDC42(WT) (from UniProt P60953 1-191)”, the binding (Nfluc416-WASP (human) [2]) is reported as “binds” and the binding (Nfluc416-WASP (human) [1]) is reported as “binds”.
In the case of “HA-tagged Cfluc398-CDC42(G12V) (from UniProt P60953 1-191)”, the binding [3] is reported as “binds”.
With “HA-tagged Cfluc398-CDC42(WT) (from UniProt P60953 1-191)” the binding [3] was “binds”.
